Reference: PubChem BioAssay (NCI)
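Exposure lasted 48 hours, with cells grown in 96-well plates and compounds tested at five concentrations. GI50 is the concentration that inhibits growth by half. TGI: concentration producing complete growth inhibition.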

Tested on: NCI-H322M lung
Test: NCI tumour cell line growth inhibition, 48 h

SMILES	TGI	GI50
Nc1nc(Cl)cc(OCC2(CO)CC=CC2)n1	> 100 µM	
COC(=O)c1cccc(C)c1C1CN=NC12Cc1cc(C)cc(C)c1C2=O (stereo not given)	> 100 µM	
CON(C)C(=O)C(Cc1ccccc1)NC(=O)OCc1ccccc1 (stereo not given)	> 100 µM	
CC(C)(C)[Si](C)(C)OC1[C@@H](O[Si](C)(C)C(C)(C)C)[C@@H](CNC(=O)NC(=O)C(F)(F)F)O[C@H]1n1cnc2c(NC(=O)Nc3ccccc3)ncnc21 (stereo not given in full)	19.7 µM	10.7 µM
